Reference: the RNAGym collection of RNA variant scans (doi:10.7554/elife.90254)
Read counts are not given, so values of variants with three or more changes are uncertain.

B1: LINE1-mini (parent)
chain: GGCAGAGCUCAACACAGCGUGGCAAAGUGGCUGUGGCUAGACUGCC

Variants of: B1
Experiment: self-cleavage, relative activity (ratio to wild type); higher = more cleavage; in vitro, sequencing; the parent is a self-cleaving ribozyme

| Variant | self-cleavage |
| --- | --- |
| A12U A16U C18G G36C | 0.01 |
| A12G G19A G21A G27U U43A C46G | 0.01 |
| A12G U28A C46G | 0.05 |
| A12U A14C G17A | 0.01 |
| A12U U20A C37G | 0.02 |
| A12U U20C A24C G29C G30U | 0.02 |
| A12U U43G G44A | 0.12 |
| A12G G40U C46A | 0.15 |
| C13A A14U U34C A41C | 0.03 |
| A12U C18U G40A C45U | 0.15 |
| C13A A16U U20C G29U | 0.1 |
| A12U C18U U28C | 0.03 |
| A12U A24U C37U A41C | 0 |
| A12G G30A C37U G40C | 0.02 |
| C13A A24C A26U G36A | 0.09 |
| C13A A14U A24C G44U | 0.46 |
| A12U C18G U20G U34C | 0.02 |
| A12G G19A C46G | 0.03 |
| A12G G19C U38G | 0.05 |
| A12U G22U U28G C31A U34C A41U G44U | 0.03 |
| A12G G30C G33A | 0.08 |
| A12G G30A G35C C42G | 0.02 |
| A12U C18G U20C U32C | 0.04 |
| A12G U20G G44U | 0.01 |

| Variant | self-cleavage |
| --- | --- |
| A12U G29A A39U C45U | 0.49 |
| A12G G30A G36A | 0.03 |
| A12G U32G A39U | 0.16 |
| A12G G17A G22U G44A | 0.02 |
| C13A A14U G30U | 0.06 |
| A12G G19C U28G G29A G40A C45A | 0.02 |
| A12U C23G A24C G44C | 0.08 |
| A12G G30U C46A | 0.04 |
| C13A A16C G17C G36U | 0.07 |
| A12U C31A U32A G33C C46A | 0.04 |
| A12U U32G G35U C42G | 0.03 |
| A12G G35U U38A | 0.02 |
| A12U C13U G17U G21U C46G | 0.03 |
| A12U G21U C37A | 0.01 |
| A12U G17U A26U U28C | 0.06 |
| A12G G21C G35U | 0.01 |
| A12G G17U C31U G33A | 0.04 |
| A12U G22U G29U | 0.43 |
| A12G C31G C37A | 0.03 |
| A12G G36U C42G C45A | 0.08 |
| A12U C31A U34C | 0.03 |
| A12U C31A U34G | 0 |
| C13A A14C G17C | 0.01 |
| A12G G27C G35C | 0.02 |

| Variant | self-cleavage |
| --- | --- |
| A12U C15A G29U | 0.03 |
| A12U G17U U20G C23U G29U | 0.02 |
| A12U C13A A25U | 0.08 |
| A12U G33U C46A | 0.01 |
| A12U G27U G30C | 0.19 |
| A12U G19C G35U | 0.04 |
| A12U C18G U20A U28A C45A | 0.08 |
| A12G G21A A26U | 0.02 |
| C13A A14G A16U C42U | 0.03 |
| A12G G17U G30C C46G | 0 |
| A12G G30U U38C | 0.03 |
| A12U A14G C31A | 0 |
| A12U G29A C42U | 0.04 |
| C13A A24G U28C U34A | 0.06 |
| A12U C13A C15A C31A G33U C42G | 0.03 |
| A12G C31A C37U | 0.22 |
| A12U A14C C18A G33U | 0.12 |
| A12U C37A U43G C46A | 0.07 |
| A12U C15U U32G C42A | 0.02 |
| A12U C23U G33A | 0.1 |
| A12U A26C C31G A39U | 0.03 |
| A12U A25U U28A G29A U32A | 0 |
| A12U C31A C45U | 0.11 |
| A12U C15U U20G G22C G29U G30U C37G | 0 |

| Variant | self-cleavage |
| --- | --- |
| A12G G36U G44A | 0.02 |
| A12G G22A C45A | 0 |
| A12U G19C G22C G33A C45A | 0 |
| C13A A25U G30U A41U | 0.08 |
| A12G C37A A39U U43A | 0.04 |
| A12U G21A A25U G29A A39C | 0.12 |
| C13A A24G U32A C42U | 0.15 |
| A12U G19C G21C G30U C31G U32C A39G C46U | 0.01 |
| A12U U34G U38G | 0 |
| A12U G17A U43A | 0.04 |
| A12U G19C U28A | 0.05 |
| C13A A24C G30U C42G C45G | 0.04 |
| A12U G17C G21A | 0.18 |
| A12U A14C G27U C31A U43A | 0.03 |
| A12U G19A G30A C31A | 0.09 |
| C13A A25C C31U | 0.12 |
| A12U G17C G27U G40C | 0.03 |
| C13A A14C A16G G44A | 0.06 |
| A12U G22A C42G | 0.02 |
| A12U G27U G35A | 0.19 |
| A12U G17A U38G | 0.02 |
| A12U C18U U20C | 0.03 |
| A12U C13G A41U C42U | 0.05 |
| A12U G30U G33C | 0.01 |

| Variant | self-cleavage |
| --- | --- |
| A12G G27U G36A A39C | 0.02 |
| A12U C23A G40A | 0.08 |
| A12U U34C A39U | 0.09 |
| A12G U20G G21A A39C | 0.03 |
| A12G U32C G36U U38C A39G | 1.72 |
| A12U G17A A26C G35C | 0.16 |
| A12U G33A U38G | 0.01 |
| A12U C18U U28A G33U A39U | 0.08 |
| A12U A25C G30U C42A C45A | 0.02 |
| A12U C18U U20C A26G | 0.04 |
| A12U G36U G44C | 0.04 |
| A12U C13A A14G | 0.11 |
| A12U C13U G35A | 0.39 |
| A12G U34A C46A | 0.02 |
| A12U C13G U34G G44A | 0.01 |
| A12G U32A G44C | 0.02 |
| C13A A16G G30U | 0.02 |
| A12G G19U C45U | 0 |
| A12U G17A G40A | 0.02 |
| A12G G22A A24G G27U | 0.02 |
| A12G G17A G44C | 0.02 |
| A12U U20G G22U A25U | 0.08 |
| A12U G17A G22C A24U G29C C31A | 0.02 |
| A12G G17A G30A C42U C45G | 0.02 |

| Variant | self-cleavage |
| --- | --- |
| A12U C13G A24C G27C | 0.01 |
| A12U G30A A39C | 0.01 |
| C13A A25U C46U | 0.1 |
| A12U G36A C37A | 0.02 |
| C13A A16U C42U | 0.06 |
| A12U G27U G35U G36C | 0.04 |
| A12U U20G A24U G35A | 0.11 |
| A12U A16U U20G U32C G36A | 0.01 |
| A12U U20C G35U | 0.05 |
| A12U G17C U34G | 0.02 |
| C13A A24G C42G | 0.07 |
| A12U C15U G19C | 0.44 |
| A12U A14G A25U U28G G35A | 0.02 |
| C13A A14G U28C A41U | 0.13 |
| A12U G27A U32G U43G | 0 |
| C13A A16U C23A G40U | 0.09 |
| A12G G19U G22A C31U C37U | 0.01 |
| A12U A25G G40U | 0.02 |
| A12U A25G G29C | 0.03 |
| A12G C37G G44U C45G | 0.01 |
| A12G G21A A24U G40U | 0.02 |
| A12U A16G G21U | 0.12 |
| A12G G19U U20C G40A G44C | 0.01 |
| A12U C15A A24G C46G | 0.01 |

| Variant | self-cleavage |
| --- | --- |
| A12G G17C C18U C23A | 0.01 |
| C13A A16U G21A G35U U43A G44C | 0.05 |
| A12G G30C A39C | 0.01 |
| A12G G29U C31A C37G G40C | 0.01 |
| A12U G40U C45G | 0.17 |
| A12U C15G C45U | 0 |
| A12G G33A A41C | 0.04 |
| C13A A25G G27U G29A | 0.18 |
| A12U A25U G27U C31A G40U U43C G44C | 0 |
| A12U C23G A39G G44A C46U | 0.02 |
| A12U A25G G36A C37A | 0.03 |
| A12G U34A G44A | 0.02 |
| A12G G29C G36A A41G | 0.02 |
| A12U A14G C23U | 0.02 |
| A12U C31U G33U U43A | 0 |
| A12U C31U A39U | 0.04 |
| C13A A25G A41U | 0.03 |
| A12U U38C U43A | 0.01 |
| C13A A14C A24C C42U | 0.14 |
| A12G C31U G36A | 0.03 |
| A12G C31U G36U | 0.05 |
| A12G G17U C18U C23G A24G G36C | 0.02 |
| A12G U20A U28G G30C | 0.02 |
